# Laboratory results: the supplement of paper PMC11348887
# Where a name gives a salt, the structure may show the parent alone. The list shows a part of the results. No stated cut-off is given here; in the data, active = -2 or less and inactive = the rest. Single values are uncertain, as repeats are few or missing.
# Tested on: hPSC-derived cortical neurons (WA09)
# Assay: nuclei number (viability) z-score; higher = more surviving cells
# Conditions: 5 µM; treatment: days 7-14 after plating, readout day 21
# 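Further: nuclei counted from DAPI counterstain by automated high-content image analysis, four fields per well at ×20 in 384-well plates, with sequential b-score then z-score normalization.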
row,SMILES,nuclei number (z-score)
1,CC(NCCc1ccc(O)cc1)C(O)c1ccc(O)cc1 (stereo not drawn) [Ritodrine HCl],inactive: 0.111
2,Cc1c(C(=O)N2CCOc3ccc(-c4ccc(N)nc4)cc3C2)ccc(S(C)(=O)=O)c1F,inactive: -0.414
3,CN1CCC(=C2c3ccccc3CCn3c(C=O)cnc32)CC1 [Alcaftadine],inactive: 10.9
4,Cc1cc(F)c(C(=O)Nc2cccc(-c3nncn3C(C)C)n2)cc1-n1cnc(C2CC2)c1 [Selonsertib (GS-4997)],inactive: 0.306
5,CCC(=O)O[C@]1(C(=O)SCF)[C@H](C)C[C@H]2[C@@H]3C[C@H](F)C4=CC(=O)C=C[C@]4(C)[C@@]3(F)[C@@H](O)C[C@@]21C [Fluticasone propionate],inactive: 0.703
6,Nc1ccc(/N=N/c2ccccc2)c(N)n1 [Phenazopyridine HCl],inactive: 0.878
7,CC(C)[C@H](O)C(=O)N[C@@H](C)C(=O)N[C@@H]1C(=O)N(C)CCc2ccccc21,inactive: 0.353
8,Cc1cn(-c2cc(NC(=O)c3ccc(C)c(Nc4nccc(-c5cnccn5)n4)c3)cc(C(F)(F)F)c2)cn1 [Radotinib],inactive: -0.977
9,Cc1[nH]nc2ccc(-c3cncc(OC[C@@H](N)Cc4ccccc4)c3)cc12,active: -8.86
10,COc1cc(CCc2cc(NC(=O)c3ccc(N4CC(C)NC(C)C4)cc3)n[nH]2)cc(OC)c1 (stereo not drawn),inactive: -0.851
11,Nc1ccc(C(=O)O)c(O)c1 [Sodium 4-Aminosalicylate],inactive: -0.0737
12,O=C1Nc2ccc(Cl)cc2[C@@](C#CC2CC2)(C(F)(F)F)O1 [Efavirenz],inactive: 0.13
13,CCCCN1CCCC[C@H]1C(=O)Nc1c(C)cccc1C [Levobupivacaine HCl],inactive: 0.607
14,CCCc1cc2c(N3CCN(C4=NCC(C)(C)S4)CC3)ncnc2s1 [MI-2 (Menin-MLL Inhibitor)],active: -3.95
15,CNCc1ccc(C)c(NC(=O)c2ccc(Nc3nc(-c4ccccc4)c4ccccc4n3)cc2)c1,active: -3.47
16,Cc1cccc(C)c1OCC(=O)N[C@@H](Cc1ccccc1)[C@@H](O)C[C@H](Cc1ccccc1)NC(=O)[C@H](C(C)C)N1CCCNC1=O [Lopinavir],inactive: -0.0303
17,Clc1ccc(C(c2ccccc2Cl)C(Cl)Cl)cc1 (stereo not drawn) [Mitotane],inactive: -0.817
18,O=C1O[C@H]([C@@H](O)CO)C(O)=C1O [Vitamin C],inactive: 0.738
19,C[S+](CC[C@H](N)C(=O)[O-])C[C@H]1O[C@@H](n2cnc3c(N)ncnc32)[C@H](O)[C@@H]1O (stereo partly drawn) [Ademetionine disulfate tosylate],inactive: -0.0111
20,O=C(O)c1ccccc1Nc1cccc(C(F)(F)F)c1 [Flufenamic acid],inactive: 0.193
21,O=C(O)Cn1nnc(-c2cc(N3CCC(Oc4cc(F)ccc4Br)CC3)no2)n1,inactive: 0.316
22,Cc1csc(-c2nnc(Nc3ccc(Oc4ncccc4-c4ccnc(N)n4)cc3)c3ccccc23)c1,inactive: 1.17
23,Nc1nc2c(ncn2COC(CO)CO)c(=O)[nH]1 [Ganciclovir],inactive: 0.501

row,SMILES,nuclei number (z-score)
1,CCCCCCCCCCCCCCCC(=O)OC[C@H](O)[C@H]1OC(=O)C(O)=C1O [L-Ascorbyl 6-palmitate],inactive: 0.632
2,Cc1nc2c([nH]1)-c1ccccc1N(C(=O)c1ccc(NC(=O)c3ccccc3-c3ccccc3)cc1)CC2 [Conivaptan HCl],inactive: 2.21
3,CNCCc1ccccn1 [Betahistine 2HCl],inactive: -0.856
4,CN(C)C(=N)NC(=N)N [Metformin HCl],inactive: -0.0838
5,COc1ccc2c(Oc3ccc(NC(=O)c4c(C)n(CC(C)(C)O)n(-c5ccccc5)c4=O)nc3)ccnc2c1,inactive: 1.98
6,COc1c(C)cnc(Cn2cnc3c(Cl)nc(N)nc32)c1C,active: -3.52
7,c1ccc2c(CCNc3ccc(Nc4ccncc4)cc3)c[nH]c2c1,inactive: 0.347
8,NCCCCCC(=O)O [_6-__-_Aminocaproic acid],inactive: 0.0202
9,CC(C)CCNC(=O)[C@H](CC(C)C)NC(=O)[C@H]1O[C@@H]1C(=O)O [Loxistatin Acid (E-64C)],inactive: 1.12
10,O=C(Cc1ccccc1)Nc1nnc(CCSCCc2nnc(NC(=O)Cc3ccccc3)s2)s1,inactive: 0.554
11,COc1ccc(-c2nc(N3CCOCC3)c3sc(CN(C)c4ncc(C(=O)NO)cn4)cc3n2)cn1,active: -5.35
12,COc1cc(-c2ncn(/C=C\C(=O)OC(C)C)n2)cc(C(F)(F)F)c1,active: -3.92
13,CC(=O)O[C@]1(C(C)=O)CC[C@H]2[C@@H]3C=C(Cl)C4=CC(=O)CC[C@]4(C)[C@H]3CC[C@@]21C [Chlormadinone acetate],inactive: 0.494
14,COc1ccc(Cl)c(Nc2nc3ccccc3nc2NS(=O)(=O)c2cccc(NC(=O)C(C)(C)N)c2)c1 [Pilaralisib (XL147)],inactive: -0.399
15,CCCNC(=O)NS(=O)(=O)c1ccc(Cl)cc1 [Chlorpropamide],inactive: 0.0507
16,Cn1ncnc1[C@H]1c2n[nH]c(=O)c3cc(F)cc(c23)N[C@@H]1c1ccc(F)cc1,inactive: 0.268
17,Cc1cnc(Nc2ccc(OCCN3CCCC3)cc2)nc1Nc1cccc(S(=O)(=O)NC(C)(C)C)c1,active: -3.11
18,C[C@]12C=CC(=O)N[C@@H]1CC[C@@H]1[C@@H]2CC[C@]2(C)[C@@H](C(=O)Nc3cc(C(F)(F)F)ccc3C(F)(F)F)CC[C@@H]12 [Dutasteride],inactive: -0.00407
19,Clc1cccc(Cl)c1NC1=NCCN1 [Clonidine HCl],inactive: 0.438
20,CN(C)S(=O)(=O)c1ccc2c(c1)/C(=C/c1cc3c([nH]1)CCCC3)C(=O)N2,inactive: -0.293
21,CO[C@H]1/C=C/O[C@@]2(C)Oc3c(C)c(O)c4c(O)c(c5c(nc6cc(C)ccn65)c4c3C2=O)NC(=O)/C(C)=C\C=C\[C@H](C)[C@H](O)[C@@H](C)[C@@H](O)[C@@H](C)[C@H](OC(C)=O)[C@@H]1C [Rifaximin],inactive: -0.00151
22,O=C(O)CCc1ccc(NCc2cccc(Oc3ccccc3)c2)cc1,inactive: 0.379
23,O=C1NCC2(CCN(CCc3ccccc3)CC2)O1 [Fenspiride HCl],inactive: 0.000535

row,SMILES,nuclei number (z-score)
1,Clc1ccc2c(c1)CCc1cccnc1C2=C1CCNCC1 [Desloratadine],inactive: 0.355
2,CCS(=O)(=O)N1CC(CC#N)(n2cc(-c3ncnc4[nH]ccc34)cn2)C1,inactive: 0.196
3,Nc1nccc(Oc2ccc(NC(=O)c3c[nH]cc(-c4ccc(F)cc4)c3=O)cc2F)c1Cl,inactive: 6.57
4,OC(c1cc(-c2ccc(Cl)cc2)nc2ccccc12)C1CCCCN1 (stereo not drawn) [Vacquinol-1],active: -7.13
5,C[C@H]1CO[C@@H]2Cn3cc(C(=O)NCc4ccc(F)cc4F)c(=O)c(O)c3C(=O)N12,inactive: -0.0724
6,NC(=O)Nc1cc(-c2cccc(F)c2)sc1C(=O)N[C@H]1CCCNC1,inactive: -0.53
7,O=C(c1ccc(F)cc1)C1CCN(CCn2c(=O)[nH]c3ccccc3c2=O)CC1 [Ketanserin],inactive: -0.56
8,C[C@H]1[C@H](C)CC[C@]2(C(=O)O)CC[C@]3(C)C(=CC[C@@H]4[C@@]5(C)CC[C@H](O)C(C)(C)[C@@H]5CC[C@]43C)[C@H]12 [Ursolic Acid],inactive: 0.0353
9,CCC1(c2ccccc2)C(=O)NCNC1=O [Primidone],inactive: 1.33
10,CCCCc1oc2ccc(NS(C)(=O)=O)cc2c1C(=O)c1ccc(OCCCN(CCCC)CCCC)cc1 [Dronedarone HCl],active: -6
11,COc1cc(Nc2c(C#N)cnc3cc(OCCCN4CCN(C)CC4)c(OC)cc23)c(Cl)cc1Cl [Bosutinib (SKI-606)],inactive: 0.706
12,CCCCCCCCCC(=O)N[C@@H](Cc1c[nH]c2ccccc12)C(=O)N[C@H](CC(N)=O)C(=O)N[C@@H](CC(=O)O)C(=O)N[C@@H]1C(=O)NCC(=O)N[C@@H](CCCN)C(=O)N[C@@H](CC(=O)O)C(=O)N[C@H](C)C(=O)N[C@@H](CC(=O)O)C(=O)NCC(=O)N[C@H](CO)C(=O)N[C@@H]([C@H](C)CC(=O)O)C(=O)N[C@@H](CC(=O)c2ccccc2N)C(=O)O[C@@H]1C [Daptomycin],inactive: 0.068
13,O=C1CC[C@@H](C(=O)N2CSC[C@H]2C(=O)O)N1 [Pidotimod],inactive: -0.147
14,c1ccc(-c2ccc(C(c3ccccc3)n3ccnc3)cc2)cc1 (stereo not drawn) [Bifonazole],inactive: -0.204
15,Oc1c(Cl)cc(Cl)c2cccnc12 [Chloroxine],inactive: 1.49
16,COc1cc2ncnc(Nc3cccc(Cl)c3F)c2cc1OC(=O)N1CCN(C)C[C@H]1C,inactive: 0.139
17,COc1ccc(Cl)cc1NC(=O)Nc1cc(C)nc2ccccc12,inactive: -0.0707
18,CN(C)CCC(c1ccc(Br)cc1)c1ccccn1 (stereo not drawn) [Brompheniramine hydrogen maleate],inactive: 6.28
19,O=C(Nc1cccnc1)c1cc(-c2ccnc(F)c2)ccc1OCc1ccccc1,inactive: 0.85
20,CCCNC(=O)c1cn2ncnc(Nc3cc(C(=O)NC4CC4)ccc3C)c2c1C,inactive: 0.16
21,COC(=O)C1=C(C)NC(C)=C(C(=O)OC(C)(C)CN(C)CCC(c2ccccc2)c2ccccc2)C1c1cccc([N+](=O)[O-])c1 (stereo not drawn) [Lercanidipine hydrochloride],active: -8.31
22,C=CC(=O)Nc1cccc(Oc2nc(Nc3ccc(N4CCN(C)CC4)cc3)ncc2Cl)c1,active: -2.07
